Data published in the supplement of paper PMC3724861.
The list shows a part of the results.

system: T1, Caupolican (Caup) homeodomain DNA-binding domain; experiment: PBM E-score (8-mer, recovered from the published 9-mer minima) (E-score (dimensionless, -0.5 to 0.5)); Drosophila protein; higher = stronger relative binding preference, active = 0.31 or more
T1 sequence: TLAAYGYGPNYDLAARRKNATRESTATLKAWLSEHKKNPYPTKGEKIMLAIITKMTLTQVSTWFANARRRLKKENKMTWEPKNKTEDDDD
Method in brief: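 Caup's homeodomain DNA-binding domain (residues 214-303) was produced by in vitro transcription and translation and applied at 100 nM to custom-designed protein binding microarrays. Each value is an enrichment score giving relative binding preference for a short DNA word; higher means stronger. Published 9-mer scores were the minimum of their two constituent 8-mer scores, and the 8-mer values were recovered from those minima. A cutoff of 0.31 marks candidate binding sequences.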

| Sequence | PBM E-score |
| --- | --- |
| CACAAACC | inactive: -0.0236 |
| AACTACAT | active: 0.408 |
| CCTCCAGG | inactive: -0.152 |
| ACTTCTAT | inactive: 0.117 |
| AAAAGGCT | inactive: -0.0639 |
| CCGACATA | inactive: 0.256 |
| ACTAGGTA | inactive: 0.123 |
| TGGGCCCA | inactive: -0.221 |
| TAACCAAA | inactive: 0.135 |
| CTTGATGA | inactive: 0.0992 |
| CTAAATAC | inactive: 0.116 |
| TGACTAAA | inactive: -0.0204 |
| AGTGGTAA | inactive: 0.0991 |
| CGTCCATC | inactive: -0.0772 |
| CGAAGATC | inactive: -0.0713 |
| CGTCGAAG | inactive: -0.0713 |
| ACCTGTCG | inactive: 0.161 |
| GGCGTAAA | inactive: -0.0244 |
| ACCGTCGA | inactive: -0.0644 |
| ATTGAGAA | inactive: 0.0669 |
| CCTGAGCA | ≥ 0.0176 |
| ACTACCAC | inactive: 0.136 |
| AATCCGTC | inactive: -0.0348 |

| Sequence | PBM E-score |
| --- | --- |
| ACCCAAGC | inactive: -0.122 |
| GAACGGGA | inactive: -0.16 |
| CGAAGAAG | inactive: -0.0167 |
| AGGGATTA | inactive: 0.053 |
| AGAAATCC | inactive: -0.111 |
| AAACTCTT | inactive: -0.0143 |
| CTAGTGCC | inactive: -0.166 |
| GACAAGGA | active: 0.314 |
| GTGGCGGA | inactive: -0.124 |
| CCTTGGAA | inactive: -0.0459 |
| AGGATACA | inactive: 0.249 |
| ACAAGGCA | inactive: 0.301 |
| CAGCCACG | inactive: -0.165 |
| GTACACAC | active: 0.331 |
| AGTCTCAA | inactive: -0.0998 |
| GAGTGGCA | inactive: -0.0892 |
| ACTACCTG | inactive: 0.054 |
| TCCGTCCA | ≥ -0.0288 |
| ATAGTCTA | inactive: 0.104 |
| TAGGTCAA | inactive: 0.0641 |
| CGTAATAG | inactive: 0.0865 |
| AATCCGGC | inactive: -0.121 |
| GTCCTTAA | inactive: 0.0893 |

| Sequence | PBM E-score |
| --- | --- |
| CCTAATTA | inactive: 0.0584 |
| CCCCCATC | inactive: -0.285 |
| ATATATTC | inactive: 0.192 |
| CTGCATCC | inactive: -0.107 |
| ACAAACAA | active: 0.317 |
| CGTACCGA | inactive: -0.0516 |
| CCTTTCTC | inactive: -0.119 |
| CCACCTGC | inactive: -0.159 |
| CAGTCATC | inactive: 0.0135 |
| GGCCGTAC | inactive: -0.00275 |
| GCGGGTAA | inactive: -0.02 |
| AGCATTAT | ≥ 0.202 |
| CATAGAGG | inactive: -0.0732 |
| GGGTATTA | inactive: -0.0519 |
| ACGAGGTC | inactive: -0.0579 |
| ACCCGAAA | inactive: -0.018 |
| ACTGGTAC | inactive: 0.127 |
| ATTTGCCC | inactive: -0.0906 |
| AATTAGGC | inactive: 0.0072 |
| CGTGAACA | inactive: 0.206 |
| ATATGTGC | inactive: 0.118 |
| CTCATTTC | inactive: -0.0332 |
| CGTCATGA | inactive: 0.0386 |

| Sequence | PBM E-score |
| --- | --- |
| ATACCGAG | inactive: 0.00098 |
| ACCCTAGC | inactive: -0.039 |
| ATACATAC | active: 0.332 |
| AAATAAGT | inactive: 0.139 |
| ATAGCAGC | inactive: -0.0281 |
| AGTCTTTG | inactive: -0.0276 |
| ACCACTCG | inactive: 0.0224 |
| CCCTCCTC | inactive: -0.26 |
| GTAGTGGA | inactive: 0.0565 |
| GCATCGGA | inactive: -0.00106 |
| CGGATTCA | inactive: -0.00675 |
| ACGTACCA | inactive: 0.0679 |
| AATCTCTC | inactive: -0.00201 |
| CTTTGACC | inactive: -0.0216 |
| GGCCTTGA | inactive: -0.179 |
| AGGAATGC | inactive: -0.00942 |
| AATCCGAG | inactive: -0.00289 |
| AACAGCAC | inactive: 0.108 |
| TAACAGCA | inactive: 0.145 |
| ACGGTTAG | inactive: -0.0469 |
| GCTGAGGA | inactive: -0.139 |
| ACGAATTG | inactive: 0.057 |
| CTAAGCAA | inactive: -0.0272 |

| Sequence | PBM E-score |
| --- | --- |
| GTTTAGTA | inactive: 0.183 |
| AAGCTCTG | inactive: -0.0643 |
| AGCTCTCA | inactive: -0.0906 |
| CGAACGAA | inactive: -0.0169 |
| GTTTTGCA | inactive: 0.0778 |
| AGTTTCTG | inactive: 0.0466 |
| GAGCTTCA | inactive: -0.0607 |
| CCCAGTGC | inactive: -0.151 |
| CAAGTTTA | inactive: 0.0933 |
| GCGGTTAC | inactive: -0.0733 |
| GATCGAAC | inactive: 0.0391 |
| ACCAAGAA | inactive: 0.0421 |
| CGCGAATC | inactive: -0.0614 |
| AAGTAGTA | inactive: 0.186 |
| ATACTCCC | inactive: -0.00697 |
| CCTCTGGC | inactive: -0.225 |
| AGGGAGAC | inactive: -0.161 |
| ACGTGGAA | inactive: 0.0233 |
| AGGATGAG | inactive: -0.106 |
